Results on 27 compounds are retold here after PubChem BioAssay AID1508624 (National Center for Advancing Translational Sciences (NCATS), 2021).

Structures are written as SMILES. About 120 (0.25%) of roughly 48,000 compounds were called active. Another 4% or so got no clear call; they are omitted. Calls follow the shape of the dose curve; as a rule, active = well fitted activation curve with a large enough effect; inconclusive = small, poorly fitted or top-dose-only effect, or another doubt; inactive = no such curve, though single readings can be large or run the other way. The list shows a part of the results, in another mix than the full data. The source gives no active or inactive call for entries shown without one.

The nature of the test: Primary qHTS for Identification of Small Molecule Activators of Huntingtin-Antisense Promoter Activity. Also: nearly all actives have a fitted effect of over 55% in size. The note with it: HEK293 HTT-AS promoter firefly luciferase reporter, 24 h; activity change, positive = activation: at 57.5 µM (top of the series), percent change from vehicle, -100% = no light. An excerpt: Assay Provider: Russell L. Margolis M.D.
Department Neurology, Johns Hopkins University School of Medicine, Baltimore, MD
Huntington's Disease (HD) is a neurodegenerative disorder caused by a CAG repeat expansion in exon 1 of huntingtin (HTT). While there are currently no disease-modifying treatments for HD, recent efforts have focused on development of nucleotide-based therapeutics to lower HTT expression. As an alternative to siRNA or oligonucleotide methods, we hypothesized that suppression of HTT expression might be accomplished by small molecules that either (1) directly decrease HTT expression by suppressing HTT promoter activity or (2) indirectly decrease HTT expression by increasing the promoter activity of HTT-AS, the gene antisense to HTT that appears to inhibit expression of HTT.
We developed and employed a high throughput screen for modifiers of HTT and HTT-AS promoter activity using luminescent reporter HEK293 cells; of the 52,041 compounds tested, we identified 898 replicable hits. We used a rigorous stepwise approach to assess compound toxicity and the capacity of the compounds to specifically lower huntingtin protein in 5 different cell lines, including HEK293 cells, HD lymphoblastoid cells, mouse primary neurons, HD iPSCs differentiated into cortical-like neurons, and HD hESCs. We found no compounds which were able to lower huntingtin without lowering cell viability in all assays, though the potential efficacy of a few compounds at non-toxic doses could not be excluded.
SEQUENCE No. (1, 2, 3, etc.); […] (e.g., Cells, Incubation, Reagent, etc.); VALUE and DESCRIPTION.
1; Reagent; 4 uL; 2,500 Hek293 luciferase reporter cells per wells
3; Compound; 23 nL; Control inhibitor / compound library
5; Reagent; 2.5 uL; Firefly Luc reagent; Dual-Glo Luciferase Reporter Assay System (Promega)
6; Time; 10 min; room temperature incubation
7; Detection; Luminescence; FLuc
NOTES (numbers refer to sequence above)
1; High-throughput screening, measuring luminescence from a Hek293 luciferase reporter, was performed in 1,536 well white-walled tissue-culture treated plates. 2,500 cells were plated in 4 µL of Opti-MEM per well using a Multidrop Combi Reagent Dispenser (ThermoFisher).
2; Assay plates were cultured for 24 hours.
3; Control inhibitor (PTC124; final concentration of 50 uM) and compound library (at final concentrations of 460 nM - 57.5 uM) were added to the assay plate using the Kalypsis Pintool Robotic System equipped with 1536 pinheads.
4; Cells were then incubated for 24 hours at 37 degrees C prior to luminescence measurements.
5; In all cases, luminescence was measured using the Dual-Glo Luciferase Reporter Assay System (Promega) following the manufacturer's instructions.
6; Room temperature incubation.
7; Luminescence signal was obtained using the PerkinElmer ViewLux plate reader. Results were normalized to vehicle control (0% activity) and zero RLU (-100% activity).
Background: qHTS replaces the single test concentration by a dilution series.
Take `Cc1c(CCC(=O)NCCc2ccccc2F)c(=O)oc2cc(O)ccc12`: the activity change, positive = activation is -9.28%.

For `O=S1(=O)N=C(Nc2cccc(C(F)(F)F)c2)c2ccccc21`, the activity change, positive = activation is -19.4%.

For the compound `COc1cccc([C@H]2Nc3ccc(S(=O)(=O)Nc4cc(C)ccc4C)cc3[C@H]3C=CC[C@H]32)c1`, the activity change, positive = activation is -2.75%.

Take `Cc1cc(C)c(OCC(=O)Nc2cccc(-c3nc4ncccc4o3)c2)c(Br)c1`: the activity change, positive = activation was -15.2%. In the case of `COc1ccc(C2=C(N3CCN(c4cc(Cl)ccc4C)CC3)c3ccccc3C2=O)cc1`, the activity change, positive = activation came to 22.8%.

As for `COc1ccc(NC(=O)c2c(C)oc3ccc(O)c(CN4CCCC(C)C4)c23)cc1` (configuration not stated), the activity change, positive = activation was -6.33%. In the case of `Cc1ccc(S(=O)(=O)Nc2cc3c(C(=O)OCc4ccccc4)c(C)oc3c3ccccc23)cc1` it was -12%. The value for `O=C(Nc1ccc2oc(-c3cc(Br)ccc3Cl)nc2c1)c1ccc2ccccc2c1` was inactive: -36.2%. `O=C(CSc1nc(-c2ccco2)nc2cc(=O)[nH]n12)Nc1ccccc1F`: the activity change, positive = activation was -7.42%.

With `Cc1cnc(-c2cnc(NCCNc3ccc(C#N)cn3)nc2-c2ccc(Cl)cc2Cl)[nH]1`, the “activity change, positive = activation” value is inactive: -21.4%. Take `COc1ccc(C)cc1S(=O)(=O)Nc1cccc(-c2ccc(N3CCCC3)nn2)c1`: the activity change, positive = activation is 7.69%. The value for `O=S(=O)(Nc1ccc(-c2ccc(N3CCCCCC3)nn2)cc1)c1ccc(C(F)(F)F)cc1` was -3.34%; that for `CCOC(=O)c1ccc2ncc(C(=O)OCC)c(NCCc3ccc(OC)c(OC)c3)c2c1` was inactive: -18.4%; that for `Cc1csc2nc(-c3cccc(NC(=O)c4ccccc4F)c3)cn12` was inactive: 17.5%.

In the case of `CCCOc1ccc(CNC(=O)Cn2c(=O)oc3ccccc32)cc1`, the activity change, positive = activation was -8.65%. In the case of `CC(=O)c1ccc(NC(=O)CN2C(=O)c3cccnc3Sc3ccccc32)cc1` it was inactive: 17%; in that of `CCOC(=O)c1ccc(N2CCN(c3cccc(Cl)c3)CC2)c(NC(=O)Nc2ccc(Cl)cc2)c1`, -10.7%; in that of `Cc1c(CC(=O)N2CCCCC2)c(=O)oc2c(C)c(O)ccc12`, -0.0899%.

For `CCc1nc2sc3c(N4CCC(C)CC4)ncnc3c2c2c1CCCC2`, the activity change, positive = activation turned out to be 2.92%. With `O=S(=O)(Nc1cccc(-c2ccc(N3CCCCCC3)nn2)c1)c1ccccc1F`, the activity change, positive = activation turned out to be 38.9%. Turning to `Cc1ccc(OCCCC(=O)Nc2sc3c(c2C(N)=O)CCC(C)C3)cc1` (configuration not stated), the activity change, positive = activation is -9.76%. In the case of `COc1cccc(CNC(=O)CCc2c(C)nn(-c3ccc(N4CCCC4)nn3)c2C)c1` it was -2.81%; in that of `Cc1cccc(OCC(=O)Nc2ccc3nc(SCc4ccccc4)sc3c2)c1`, inactive: 14%. In the case of `COc1cc2c(cc1OC)[C@@H]1Cc3ccc(OC)c(OC)c3CN1CC2` it was inactive: -9.9%.

`Cc1ccc2nc(Nc3cccc(C(F)(F)F)c3)c3nnnn3c2c1`: the activity change, positive = activation was 5.33%.

Turning to `CCc1c(C)sc(NC(=O)c2cc(-c3ccc(OC)c(OC)c3)on2)c1C#N`, the activity change, positive = activation was found to be 5.29%. The value for `O=C(CN1C(=O)COc2ccc(Cl)cc21)Nc1cccc(C(=O)O)c1` was 5.91%.
